The list shows a part of the results.
Experiments:
Assay in all cases: glycan array binding signal (z-score within array); higher = stronger binding
Conditions in all cases: glycan notation: IUPAC condensed, linker removed
[1] = biological target: Neu5Ac(a2-6)GlcNAc(b1-4)GlcNAc(b1-4)GlcNAc
In short: (§1)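 The binding signal is a Z-score computed within each array. Data were drawn from 3228 arrays in the Consortium for Functional Glycomics database, restricted to those with a known protein sequence. Scores were averaged over arrays of the same protein sequence at different concentrations or buffers, and over linkers, and negative values can be taken as non-binding.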

[2] = biological target: Neu5Ac(a2-8)Neu5Ac
In short: as §1

[3] = biological target: Neu5Ac(a2-8)Neu5Ac(a2-3)Gal(b1-3)GalNAc(b1-4)[Neu5Ac(a2-3)]Gal(b1-4)Glc
In short: as §1

[4] = biological target: Neu5Ac(a2-8)Neu5Ac(a2-3)Gal(b1-3)GalNAc(b1-4)[Neu5Ac(a2-8)Neu5Ac(a2-3)]Gal(b1-4)Glc
In short: as §1

[5] = biological target: Neu5Ac(a2-8)Neu5Ac(a2-3)Gal(b1-4)Glc
In short: as §1

[6] = biological target: Neu5Ac(a2-8)Neu5Ac(a2-3)Gal(b1-4)GlcNAc
In short: as §1

[7] = biological target: Neu5Ac(a2-8)Neu5Ac(a2-3)[Gal(b1-3)GalNAc(b1-4)]Gal(b1-4)Glc
In short: as §1

[8] = biological target: Neu5Ac(a2-8)Neu5Ac(a2-3)[GalNAc(b1-4)]Gal(b1-4)Glc
In short: as §1

[9] = biological target: Neu5Ac(a2-8)Neu5Ac(a2-8)Neu5Ac
In short: as §1

[10] = biological target: Neu5Ac(a2-8)Neu5Ac(a2-8)Neu5Ac(a2-3)Gal(b1-4)Glc
In short: as §1

[11] = biological target: Neu5Ac(a2-8)Neu5Ac(a2-8)Neu5Ac(a2-3)[Gal(b1-3)GalNAc(b1-4)]Gal(b1-4)Glc
In short: as §1

[12] = biological target: Neu5Ac(a2-8)Neu5Ac(a2-8)Neu5Ac(a2-3)[GalNAc(b1-4)]Gal(b1-4)Glc
In short: as §1

[13] = biological target: Neu5Ac(a2-8)Neu5Ac(a2-8)Neu5Ac(a2-8)Neu5Ac(a2-3)[GalNAc(b1-4)]Gal(b1-4)Glc
In short: as §1

[14] = biological target: Neu5Ac(a2-8)Neu5Gc(a2-3)Gal(b1-4)GlcNAc
In short: as §1

[15] = biological target: Neu5Ac(b2-6)Gal(b1-4)GlcNAc
In short: as §1

[16] = biological target: Neu5Ac(b2-6)GalNAc
In short: as §1

[17] = biological target: Neu5Ac9Ac(a2-3)Gal(b1-3)GlcNAc
In short: as §1

[18] = biological target: Neu5Ac9Ac(a2-3)Gal(b1-4)GlcNAc
In short: as §1

[19] = biological target: Neu5Ac9Ac(a2-6)Gal(b1-4)GlcNAc
In short: as §1

[20] = biological target: Neu5Gc(a2-3)Gal(b1-3)GlcNAc
In short: as §1

[21] = biological target: Neu5Gc(a2-3)Gal(b1-3)[Fuc(a1-4)]GlcNAc
In short: as §1

[22] = biological target: Neu5Gc(a2-3)Gal(b1-4)Glc
In short: as §1

[23] = biological target: Neu5Gc(a2-3)Gal(b1-4)GlcNAc
In short: as §1

[24] = biological target: Neu5Gc(a2-3)Gal(b1-4)GlcNAc(b1-3)Gal(b1-4)GlcNAc(b1-2)Man(a1-3)[Neu5Gc(a2-3)Gal(b1-4)GlcNAc(b1-3)Gal(b1-4)GlcNAc(b1-2)Man(a1-6)]Man(b1-4)GlcNAc(b1-4)GlcNAc
In short: as §1

[25] = biological target: Neu5Gc(a2-3)Gal(b1-4)[Fuc(a1-3)]GlcNAc
In short: as §1

[26] = biological target: Neu5Gc(a2-6)Gal(b1-4)GlcNAc
In short: as §1

[27] = biological target: Neu5Gc(a2-6)GalNAc
In short: as §1

[28] = biological target: Neu5Gc(a2-8)Neu5Ac(a2-3)Gal(b1-4)GlcNAc
In short: as §1

[29] = biological target: Neu5Gc(a2-8)Neu5Gc(a2-3)Gal(b1-4)GlcNAc
In short: as §1

[30] = biological target: Neu5Gc(a2-8)Neu5Gc(a2-3)Gal(b1-4)GlcNAc(b1-3)Gal(b1-4)GlcNAc
In short: as §1

[31] = biological target: Neu5Gc(a2-8)Neu5Gc(a2-6)Gal(b1-4)GlcNAc
In short: as §1

[32] = biological target: Neu5Gc(b2-6)Gal(b1-4)GlcNAc
In short: as §1

B1: DC-ASGPR Long (Homo sapiens) (protein)
chain: MTRTYENFQYLENKVKVQGFKNGPLPLQSLLQRLRSGPCHLLLSLGLGLLLLVIICVVGFQNSKFQRDLVTLRTDFSNFTSNTVAEIQALTSQGSSLEETIASLKAEVEGFKQERQAGVSELQEHTTQKAHLGHCPHCPSVCVPVHSEMLLRVQQLVQDLKKLTCQVATLNNNASTEGTCCPVNWVEHQDSCYWFSHSGMSWAEAEKYCQLKNAHLVVINSREEQNFVQKYLGSAYTWMGLSDPEGAWKWVDGTDYATGFQNWKPGQPDDWQGHGLGGGEDCAHFHPDGGWNDDVCQRPYHWVCEAGLGQTSQESH
glycan array binding signal (z-score) [1]: -0.466 | glycan array binding signal (z-score) [2]: -0.533 | glycan array binding signal (z-score) [3]: -0.374 | glycan array binding signal (z-score) [4]: -0.349 | glycan array binding signal (z-score) [5]: -0.297 | glycan array binding signal (z-score) [6]: -0.339 | glycan array binding signal (z-score) [7]: -0.074 | glycan array binding signal (z-score) [8]: 1.28 | glycan array binding signal (z-score) [9]: -0.221 | glycan array binding signal (z-score) [10]: -0.459 | glycan array binding signal (z-score) [11]: -0.41 | glycan array binding signal (z-score) [12]: 0.83 | glycan array binding signal (z-score) [13]: 0.893 | glycan array binding signal (z-score) [14]: -0.127 | glycan array binding signal (z-score) [15]: -0.03 | glycan array binding signal (z-score) [16]: -0.414 | glycan array binding signal (z-score) [17]: -0.292 | glycan array binding signal (z-score) [18]: -0.012 | glycan array binding signal (z-score) [19]: -0.439 | glycan array binding signal (z-score) [20]: -0.306 | glycan array binding signal (z-score) [21]: -0.334 | glycan array binding signal (z-score) [22]: -0.31 | glycan array binding signal (z-score) [23]: -0.161 | glycan array binding signal (z-score) [24]: 0.188 | glycan array binding signal (z-score) [25]: -0.133 | glycan array binding signal (z-score) [26]: -0.344 | glycan array binding signal (z-score) [27]: 0.977 | glycan array binding signal (z-score) [28]: -0.253 | glycan array binding signal (z-score) [29]: -0.05 | glycan array binding signal (z-score) [30]: 0.424 | glycan array binding signal (z-score) [31]: -0.645 | glycan array binding signal (z-score) [32]: -0.507

— the supplement of paper PMC8728848
